# PMC9911399, “Two distinct binding modes provide the RNA-binding protein RbFox with extraordinary sequence specificity”
# Where a chain is given by its changes, count along the chain named. The list shows a part of the results.
# T1: RBFOX1 RRM (Homo sapiens, UniProt Q9NWB1 109-208)
# T1 sequence: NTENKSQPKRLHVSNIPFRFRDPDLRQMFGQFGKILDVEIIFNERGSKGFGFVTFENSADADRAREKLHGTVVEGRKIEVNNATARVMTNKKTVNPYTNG
# B1: CCAGCGA (DNA:RNA)
# RNA: GGGAGACCGGAAUUCAGAUUGUCCCCAGCGAUUAAAUCCCGUCGUAGCCACCA
# DNA 1: CAATCTGAATTCCGGTCTCCC
# DNA 2: TGGTGGCTACGACGGGATT
# B2: GGAUAGU (DNA:RNA)
# RNA: B1 RNA with C25G, C26G, G28U, C29A, A31U
# DNA 1: CAATCTGAATTCCGGTCTCCC
# DNA 2: TGGTGGCTACGACGGGATT
# B3: GAAAGCG (DNA:RNA)
# RNA: B1 RNA with C25G, C26A, G28A, C29G, G30C, A31G
# DNA 1: CAATCTGAATTCCGGTCTCCC
# DNA 2: TGGTGGCTACGACGGGATT
# B4: GUAAUGG (DNA:RNA)
# RNA: B1 RNA with C25G, C26U, G28A, C29U, A31G
# DNA 1: CAATCTGAATTCCGGTCTCCC
# DNA 2: TGGTGGCTACGACGGGATT
# B5: CAAAAUU (DNA:RNA)
# RNA: B1 RNA with C26A, G28A, C29A, G30U, A31U
# DNA 1: CAATCTGAATTCCGGTCTCCC
# DNA 2: TGGTGGCTACGACGGGATT
# B6: CAUUCAG (DNA:RNA)
# RNA: B1 RNA with C26A, A27U, G28U, G30A, A31G
# DNA 1: CAATCTGAATTCCGGTCTCCC
# DNA 2: TGGTGGCTACGACGGGATT
# B7: GAAGUGC (DNA:RNA)
# RNA: B1 RNA with C25G, C26A, C29U, A31C
# DNA 1: CAATCTGAATTCCGGTCTCCC
# DNA 2: TGGTGGCTACGACGGGATT
# B8: UAGCCUA (DNA:RNA)
# RNA: B1 RNA with C25U, C26A, A27G, G28C, G30U
# DNA 1: CAATCTGAATTCCGGTCTCCC
# DNA 2: TGGTGGCTACGACGGGATT
# B9: CUGCUGG (DNA:RNA)
# RNA: B1 RNA with C26U, A27G, G28C, C29U, A31G
# DNA 1: CAATCTGAATTCCGGTCTCCC
# DNA 2: TGGTGGCTACGACGGGATT
# B10: CAUUACA (DNA:RNA)
# RNA: B1 RNA with C26A, A27U, G28U, C29A, G30C
# DNA 1: CAATCTGAATTCCGGTCTCCC
# DNA 2: TGGTGGCTACGACGGGATT
# B11: CAAUCGG (DNA:RNA)
# RNA: B1 RNA with C26A, G28U, A31G
# DNA 1: CAATCTGAATTCCGGTCTCCC
# DNA 2: TGGTGGCTACGACGGGATT
# B12: ACCCAUA (DNA:RNA)
# RNA: B1 RNA with C25A, A27C, G28C, C29A, G30U
# DNA 1: CAATCTGAATTCCGGTCTCCC
# DNA 2: TGGTGGCTACGACGGGATT
# B13: AUCCAUU (DNA:RNA)
# RNA: GGGAGACCGGAAUUCAGAUUGUCCAUCCAUUUUAAAUCCCGUCGUAGCCACCA
# DNA 1: CAATCTGAATTCCGGTCTCCC
# DNA 2: TGGTGGCTACGACGGGATT
# B14: CAAAGCG (DNA:RNA)
# RNA: B1 RNA with C26A, G28A, C29G, G30C, A31G
# DNA 1: CAATCTGAATTCCGGTCTCCC
# DNA 2: TGGTGGCTACGACGGGATT
# B15: GGGCACG (DNA:RNA)
# RNA: B13 RNA with A25G, U26G, C27G, U30C, U31G
# DNA 1: CAATCTGAATTCCGGTCTCCC
# DNA 2: TGGTGGCTACGACGGGATT
# B16: UUUCUUG (DNA:RNA)
# RNA: B13 RNA with A25U, C27U, A29U, U31G
# DNA 1: CAATCTGAATTCCGGTCTCCC
# DNA 2: TGGTGGCTACGACGGGATT
# B17: GAGACUU (DNA:RNA)
# RNA: B13 RNA with A25G, U26A, C27G, C28A, A29C
# DNA 1: CAATCTGAATTCCGGTCTCCC
# DNA 2: TGGTGGCTACGACGGGATT
# B18: GAUAGUC (DNA:RNA)
# RNA: B13 RNA with A25G, U26A, C27U, C28A, A29G, U31C
# DNA 1: CAATCTGAATTCCGGTCTCCC
# DNA 2: TGGTGGCTACGACGGGATT
# B19: ACCAGGU (DNA:RNA)
# RNA: B13 RNA with U26C, C28A, A29G, U30G
# DNA 1: CAATCTGAATTCCGGTCTCCC
# DNA 2: TGGTGGCTACGACGGGATT
# B20: UCCCGUG (DNA:RNA)
# RNA: B13 RNA with A25U, U26C, A29G, U31G
# DNA 1: CAATCTGAATTCCGGTCTCCC
# DNA 2: TGGTGGCTACGACGGGATT
# B21: GUUGUAG (DNA:RNA)
# RNA: B13 RNA with A25G, C27U, C28G, A29U, U30A, U31G
# DNA 1: CAATCTGAATTCCGGTCTCCC
# DNA 2: TGGTGGCTACGACGGGATT
# B22: GUUGCGA (DNA:RNA)
# RNA: B1 RNA with C25G, C26U, A27U
# DNA 1: CAATCTGAATTCCGGTCTCCC
# DNA 2: TGGTGGCTACGACGGGATT
# B23: AUGCCCA (DNA:RNA)
# RNA: B13 RNA with C27G, A29C, U30C, U31A
# DNA 1: CAATCTGAATTCCGGTCTCCC
# DNA 2: TGGTGGCTACGACGGGATT
# B24: UGCGUGA (DNA:RNA)
# RNA: B1 RNA with C25U, C26G, A27C, C29U
# DNA 1: CAATCTGAATTCCGGTCTCCC
# DNA 2: TGGTGGCTACGACGGGATT
# B25: GCCACCC (DNA:RNA)
# RNA: B1 RNA with C25G, A27C, G28A, G30C, A31C
# DNA 1: CAATCTGAATTCCGGTCTCCC
# DNA 2: TGGTGGCTACGACGGGATT
# B26: UAUCCGG (DNA:RNA)
# RNA: B1 RNA with C25U, C26A, A27U, G28C, A31G
# DNA 1: CAATCTGAATTCCGGTCTCCC
# DNA 2: TGGTGGCTACGACGGGATT
# B27: UACAAUG (DNA:RNA)
# RNA: B13 RNA with A25U, U26A, C28A, U31G
# DNA 1: CAATCTGAATTCCGGTCTCCC
# DNA 2: TGGTGGCTACGACGGGATT
# B28: GCAAUCC (DNA:RNA)
# RNA: B1 RNA with C25G, G28A, C29U, G30C, A31C
# DNA 1: CAATCTGAATTCCGGTCTCCC
# DNA 2: TGGTGGCTACGACGGGATT
# B29: GUCGGCC (DNA:RNA)
# RNA: B13 RNA with A25G, C28G, A29G, U30C, U31C
# DNA 1: CAATCTGAATTCCGGTCTCCC
# DNA 2: TGGTGGCTACGACGGGATT
# B30: AAUCAAC (DNA:RNA)
# RNA: B13 RNA with U26A, C27U, U30A, U31C
# DNA 1: CAATCTGAATTCCGGTCTCCC
# DNA 2: TGGTGGCTACGACGGGATT
# B31: AGCCGUU (DNA:RNA)
# RNA: B13 RNA with U26G, A29G
# DNA 1: CAATCTGAATTCCGGTCTCCC
# DNA 2: TGGTGGCTACGACGGGATT
# Target: T1, RBFOX1 RRM
# Assay: EMSA; HiTS-Eq, 1 nM pool, 10 min; buffer printed only for the single-RNA assays: 10 mM Tris pH 7.5, 150 mM NaCl, 3.4 mM EDTA, 0.001% NP-40, 30 C
# Settings: tags: His6 N-terminal (pET28a); label: 5' 32P
# How it was run: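 Purified RbFox RRM, wild type or mutant, was incubated for 10 min in 50 µL with 1 nM of a 5′-radiolabelled RNA pool carrying 7 randomized nucleotides, whose flanks were annealed to DNA oligonucleotides, over a series of increasing protein concentrations. Unbound RNA was resolved on 8% native PAGE, cut out, reverse-transcribed, barcoded by PCR and sequenced on an Illumina HiSeq 2500. Relative association constants were derived from changes in read counts for each RNA species versus the control reaction and normalised to the cognate motif.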
row,Binder,binding signal
1,B1,0.00889 KA relative to UGCAUGU
2,B2,0.0169 KA relative to UGCAUGU
3,B3,0.0114 KA relative to UGCAUGU
4,B4,0.0117 KA relative to UGCAUGU
5,B5,0.00052 KA relative to UGCAUGU
6,B6,0.00522 KA relative to UGCAUGU
7,B7,0.0195 KA relative to UGCAUGU
8,B8,0.00397 KA relative to UGCAUGU
9,B9,0.0205 KA relative to UGCAUGU
10,B10,0.000751 KA relative to UGCAUGU
11,B11,0.00617 KA relative to UGCAUGU
12,B12,0.00387 KA relative to UGCAUGU
13,B13,0.00038 KA relative to UGCAUGU
14,B14,0.00468 KA relative to UGCAUGU
15,B15,0.0317 KA relative to UGCAUGU
16,B16,0.0222 KA relative to UGCAUGU

row,Binder,binding signal
1,B17,0.0106 KA relative to UGCAUGU
2,B18,0.0209 KA relative to UGCAUGU
3,B19,0.00472 KA relative to UGCAUGU
4,B20,0.0166 KA relative to UGCAUGU
5,B21,0.0152 KA relative to UGCAUGU
6,B22,0.0206 KA relative to UGCAUGU
7,B23,0.00614 KA relative to UGCAUGU
8,B24,0.0231 KA relative to UGCAUGU
9,B25,0.00421 KA relative to UGCAUGU
10,B26,0.00956 KA relative to UGCAUGU
11,B27,0.00916 KA relative to UGCAUGU
12,B28,0.00851 KA relative to UGCAUGU
13,B29,0.0169 KA relative to UGCAUGU
14,B30,0.000441 KA relative to UGCAUGU
15,B31,0.00587 KA relative to UGCAUGU
